Over roughly 33,000 sequences, “E-score (-0.5 to 0.5)” has its median near -0.012; the highest 2% begin near 0.27. This is one part of the list.
target: T1, Vhr1 (UniProt P40522); assay: PBM E-score (8-mer binding enrichment) (E-score (-0.5 to 0.5)); higher = stronger / more preferred TF binding; most listed sequences are background and not binding sites; conditions: protein concentration: 200 nM; construct: GST-full length
T1 sequence: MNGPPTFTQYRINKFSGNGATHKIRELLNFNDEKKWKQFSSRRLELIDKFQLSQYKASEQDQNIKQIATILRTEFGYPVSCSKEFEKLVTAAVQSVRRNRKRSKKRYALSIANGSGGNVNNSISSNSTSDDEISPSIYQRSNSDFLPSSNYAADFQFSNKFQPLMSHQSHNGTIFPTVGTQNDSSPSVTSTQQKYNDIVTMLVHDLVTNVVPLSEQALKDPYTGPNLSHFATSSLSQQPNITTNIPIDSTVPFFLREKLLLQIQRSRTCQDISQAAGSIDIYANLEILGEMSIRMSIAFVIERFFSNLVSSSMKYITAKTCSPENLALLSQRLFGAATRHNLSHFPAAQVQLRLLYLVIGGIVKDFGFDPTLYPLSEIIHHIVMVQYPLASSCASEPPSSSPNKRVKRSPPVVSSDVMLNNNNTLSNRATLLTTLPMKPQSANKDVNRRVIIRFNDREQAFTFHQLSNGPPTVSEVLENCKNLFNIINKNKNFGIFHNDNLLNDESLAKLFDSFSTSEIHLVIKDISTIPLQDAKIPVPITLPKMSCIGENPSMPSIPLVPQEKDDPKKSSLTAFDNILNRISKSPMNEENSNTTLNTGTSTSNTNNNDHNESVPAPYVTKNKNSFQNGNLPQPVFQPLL
How it was run: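 Yeast transcription factors carrying a GST tag, as full-length proteins or DNA-binding domains, were produced by PURExpress in vitro transcription/translation. About 100-200 nM protein was applied to universal all-10-mer Agilent arrays, double-stranded by primer extension on fresh or once-stripped slides. Bound protein was detected with fluorescent anti-GST, and scans were normalised with masliner. The Universal PBM Analysis Suite gave each ungapped eight-base word, pooled with its reverse complement, an E-score, a modified Wilcoxon-Mann-Whitney statistic.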

Row | Sequence | PBM E-score
1 | CCGTCGTA | -0.0594
2 | CCTTAGAG | -0.233
3 | CCTATTCA | -0.0676
4 | AACTCCCC | 0.0106
5 | TCTACTCA | 0.112
6 | CCGTAATC | -0.0313
7 | CACTTGGC | -0.141
8 | TTATAAAA | -0.0537
9 | GAACTGTC | -0.0201
10 | ACTCGCAG | 0.158
11 | AGGCGATG | 0.149
12 | CGAACTCG | 0.0311
13 | CCTCAGCA | -0.0472
14 | GAGAGGAC | -0.0127
15 | TCTCCACA | -0.0495
16 | CACTGCGG | 0.213
17 | CAGAGGCC | -0.0619
18 | AACAATGC | 0.216
19 | AAGGACCC | -0.13
20 | AAGACCCT | -0.0794
21 | GAAAATCC | -0.162
22 | ACGAGATA | -0.143
23 | GTATGGAC | 0.0175
24 | GCGCACGA | 0.0591
25 | GGATATCA | -0.079

Row | Sequence | PBM E-score
26 | GCTCAATA | 0.0628
27 | CCAGATAC | 0.0239
28 | CAGAATAA | 0.0312
29 | AGGCCTAG | -0.177
30 | AGTTCAAA | -0.133
31 | AACCCTAT | 0.105
32 | GCATTATA | -0.0873
33 | ATAAATAG | -0.0761
34 | CTGCAGAC | 0.0131
35 | GCTCGGCA | 0.0799
36 | CTGAGTAC | 0.175
37 | CCGGCATA | -0.094
38 | CGTCTAAA | -0.184
39 | GGTGCGAC | 0.17
40 | CAATCTAC | 0.0645
41 | CGTGGTTC | 0.173
42 | CACCCGTG | 0.201
43 | AATTCCCC | -0.00371
44 | CTTTAGAC | -0.0927
45 | GTCTATTA | 0.0479
46 | ACTGCCCC | -0.0425
47 | AAGTTCGC | -0.254
48 | TCAGTAGA | -0.00045
49 | AAGTACAT | 0.143
50 | GGAATGAA | 0.0761

Row | Sequence | PBM E-score
51 | TCCTGTCA | 0.0334
52 | CTAGGAAG | 0.0291
53 | AAGTTAGC | -0.244
54 | ATATTCCG | 0.0138
55 | CGCGGAGC | 0.0201
56 | CATAGTGC | 0.0414
57 | GGTTTGAA | -0.0872
58 | GCGGCACC | 0.0617
59 | CGCTCTTA | -0.033
60 | CTGACCCA | 0.0712
61 | CCCGTTGC | -0.157
62 | GCTGCGAC | -0.0289
63 | GCAAGTTA | -0.0186
64 | TGTGCACA | -0.272
65 | CAACGTAG | -0.124
66 | ATACGACG | -0.0237
67 | GCAGACGA | 0.105
68 | CCGTTAGA | -0.163
69 | CGAACAAG | -0.162
70 | ATTAGAGA | -0.169
71 | GCATGATA | 0.0954
72 | CCAGTCAG | 0.0854
73 | ACCACTAA | 0.0612
74 | ACGACAAT | 0.0908
75 | AAGGTGGT | -0.0586

Row | Sequence | PBM E-score
76 | ACACCCGT | 0.0273
77 | GTCCGAAA | -0.0328
78 | CGCAAGGA | -0.0519
79 | GGGCTATA | -0.156
80 | AGTGTGTC | 0.129
81 | AGCCCGTC | -0.17
82 | AAAACGAA | -0.0683
83 | CGGATGCC | -0.13
84 | AATATTGG | 0.0108
85 | AATGGTTG | 0.0415
86 | AGGCCGCG | -0.126
87 | CAAACTCG | 0.102
88 | AGTATGAG | 0.0941
89 | CGTTAGAC | -0.203
90 | ATTCGCAC | 0.0743
91 | GATAGAGA | -0.129
92 | ACCGGAAT | -0.073
93 | CAAATGAG | -0.248
94 | GAACGGAA | -0.112
95 | CCCTGGAC | -0.116
96 | GCCTATTA | -0.0128
97 | CACGACAG | 0.0224
98 | CATGAACA | 0.0728
99 | AATTCTCC | 0.0229
100 | GCCACCCC | -0.0413

Row | Sequence | PBM E-score
101 | ACAGACGT | 0.048
102 | CACATATA | 0.15
103 | TGAAGTCA | 0.208
104 | CATTGATA | 0.068
105 | ATACCCGC | 0.169
106 | CTACGGGA | -0.0509
107 | AGTCGAAG | -0.0128
108 | ACCTCGCT | 0.0865
109 | ACCGCACT | 0.12
110 | CCTATTTA | -0.0433
111 | AGGAACCC | -0.112
112 | AATAACAG | 0.0471
113 | CAACAGGA | -0.112
114 | TATATAGA | 0.126
115 | AGGTGCGG | 0.057
116 | GGTGCACA | 0.0381
117 | ATCGAAAG | -0.0809
118 | AAACATTT | -0.149
119 | AAGACAGA | -0.105
120 | GTTCGAAC | 0.164
121 | CTTAAGGA | -0.169
122 | ATGCTCTC | -0.0255
123 | ACGTGGCG | -0.202
124 | ACGTGGTC | -0.0211
125 | AGTTAATG | 0.11

Row | Sequence | PBM E-score
126 | ATTAATCC | 0.0984
127 | CCCACGCA | 0.0726
128 | TCTGCTAA | -0.23
129 | ACACTTAA | -0.0332
130 | AACCCCGT | 0.139
131 | ATGTAGGG | -0.124
132 | ACTGGATA | 0.198
133 | CTTGCTAC | -0.031
134 | TCGTTTCA | 0.0487
135 | CGAGTCGA | 0.224
136 | ACATTGCC | -0.0607
137 | CGGGAGAG | -0.0482
138 | AGCGAATC | 0.0953
139 | GATACTCC | 0.0481
140 | GCCTAGAC | -0.0939
141 | CAGTATAA | 0.0454
142 | AAACAGTC | 0.105
143 | CTCGCAAC | 0.00997
144 | GCCTACGC | 0.00302
145 | AATAATAG | -0.0397
146 | CATCGCGC | 0.104
147 | AAAGTATG | 0.0441
148 | ACGTGGTA | 0.038
149 | CAAAAAAG | -0.111
150 | GATACCAA | 0.099

Row | Sequence | PBM E-score
151 | CTTGACGA | -0.0669
152 | CGCAGCAG | -0.0145
153 | GTGCCGAA | -0.112
154 | AGGCAGGA | -0.0482
155 | AAGAACAG | 0.00088
156 | AGTTGTAC | -0.0186
157 | CGAGAGTC | 0.203
158 | CGGCTTAC | -0.0374
159 | AAGGAAAT | -0.117
160 | ATCTGTCC | -0.0732
161 | AGGAGGGG | 0.284
162 | AACTCGCA | -0.0141
163 | GCACATTA | -0.0215
164 | AAATTGAA | -0.175
165 | CTCACGAA | 0.0327
166 | CCTAGCCA | -0.219
167 | ATATGGGA | 0.129
168 | AAGAGAAC | -0.147
169 | CAAAGAAG | -0.349
170 | CCATGGAG | 0.101
171 | GACAGCAC | 0.102
172 | GACAGAAA | 0.0117

From the supplement of paper PMC3334620
